{
  "source": "the supplement of paper PMC11417369",
  "note": "± gives the standard deviation of the averaged measurements. The list shows a part of the results.",
  "data": [
    {"tested_on": "PfAP2-LT AP2 domain (GST-tagged)", "test": "gcPBM binding intensity (ln(normalized median fluorescence intensity)); higher = stronger DNA binding", "summary_of_the_method": "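Using an Agilent 4 × 180k array, primer-extended double-stranded 36-bp intergenic genomic probes and negative controls were exposed for 1 h to GST-fused P. falciparum DNA-binding domains expressed in E. coli. Binding was carried out in 1× PBS with 1% milk, 0.2 mg/ml BSA, 0.5% salmon testes DNA and 0.03% Triton X-100, and protein was detected with Alexa488 anti-GST antibody and a 488 nm scan. Binding intensity is the highest Masliner-normalised natural-log median intensity across replicate spots of either probe orientation.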", "values": [
      {"sequence": "GAAACAATTTGATATTGTACATAAATAAATAAAAAC [XGTACX_site8869]", "gcPBM binding intensity (ln)": "8.89 ± 0.54"},
      {"sequence": "CTTGTACCTAGAAATACACACAATTCTATAACTTAT [CACACA_site7355]", "gcPBM binding intensity (ln)": "8.87 ± 0.42"},
      {"sequence": "TCATTTTTTTGTTTGGTGCGACTTGAAAATTTGATT", "gcPBM binding intensity (ln)": "8.85 ± 0.37"},
      {"sequence": "TTGTACATCTTTTGCACACGTAATGTTATTATAATA [CACACA_site1258]", "gcPBM binding intensity (ln)": "9.07 ± 0.31"},
      {"sequence": "TTATAACTTTTGAGCACACACAAGCATATAAATATA [CACACA_site6933]", "gcPBM binding intensity (ln)": "8.96 ± 0.47"},
      {"sequence": "AAATACTGTAAAAAAGCATGCCACTAATAATAATTA [TGCATGCA_site759]", "gcPBM binding intensity (ln)": "9.02 ± 0.5"},
      {"sequence": "AGAGAATAAATATAAAGTACATATATAAATATATAT [XGTACX_site5055]", "gcPBM binding intensity (ln)": "8.79 ± 0.49"},
      {"sequence": "ACATATACAAAACACACACACAACGTTTTAATAAAT [CACACA_site1979]", "gcPBM binding intensity (ln)": "9.85 ± 0.35"},
      {"sequence": "ATGTTATAAATCTTAATATATATATGCAAAAGAGAA [XGTACX_negctrl_site521]", "gcPBM binding intensity (ln)": "8.71 ± 0.4"},
      {"sequence": "GTATATAAAAATTCATGTACATATTATTATTTTTAA [XGTACX_site658]", "gcPBM binding intensity (ln)": "8.5 ± 0.45"},
      {"sequence": "ACATATATATAATATATATATCATCATATTTTCTTA [CACACA_negctrl_site853]", "gcPBM binding intensity (ln)": "8.64 ± 0.47"},
      {"sequence": "TGTGTGTGTATATGTGTGCACATATAAAATAGAAGA [GTGCAC_site9714]", "gcPBM binding intensity (ln)": "9.95 ± 0.28"},
      {"sequence": "ATATGTGTTATTTATACATGCAGAAGAATATCTATT [TGCATGCA_site828]", "gcPBM binding intensity (ln)": "8.84 ± 0.38"},
      {"sequence": "CATACATTTAAAAAGTGTACGTATATGAAAAAAGGA [XGTACX_site6512]", "gcPBM binding intensity (ln)": "8.82 ± 0.39"},
      {"sequence": "ACCTTTGTAGTTGGTCCACACACATATATGGAAGAA [CACACA_site8351]", "gcPBM binding intensity (ln)": "9.18 ± 0.38"},
      {"sequence": "CTCAATATTATTACTACACACAAATTAAAATTTTCC [CACACA_site4203]", "gcPBM binding intensity (ln)": "8.69 ± 0.45"},
      {"sequence": "AATAATCATGATCAAAGTACGTATGATTAAAAAAAA [XGTACX_site4916]", "gcPBM binding intensity (ln)": "8.96 ± 0.5"},
      {"sequence": "TATATGTAAATGGACACACACATATATATATATATA [CACACA_site3659]", "gcPBM binding intensity (ln)": "10 ± 0.13"},
      {"sequence": "TATGACCTTAGTAATTGTACACAAACATATTAATAT [XGTACX_site3340]", "gcPBM binding intensity (ln)": "8.79 ± 0.4"},
      {"sequence": "GAGTATATGATATATATATATATATAAAAAAAAAAA [GTGCAC_negctrl_site99]", "gcPBM binding intensity (ln)": "9.4 ± 0.48"},
      {"sequence": "TTGAGTTGTATAAAAAGTACAAGGTTTTAACTAAAT [XGTACX_site1447]", "gcPBM binding intensity (ln)": "8.79 ± 0.45"},
      {"sequence": "TTATAATATTCATAAGGTACAGTTTATATATGTTAT [XGTACX_site8442]", "gcPBM binding intensity (ln)": "8.68 ± 0.4"},
      {"sequence": "ATATATATTATATGCACACTAATAAGACTATTTAAA [CACACA_site3554]", "gcPBM binding intensity (ln)": "8.75 ± 0.37"},
      {"sequence": "GTATATGTACTATACGCACACACACCCACATATATA [CACACA_site9062]", "gcPBM binding intensity (ln)": "9.85 ± 0.24"},
      {"sequence": "CGTATATCACCAACTAGTACATATAAATAAATAAAT [XGTACX_site8837]", "gcPBM binding intensity (ln)": "8.89 ± 0.47"},
      {"sequence": "ATATAGATTCGACACACACACAAAAAAAAAAAAAAA [CACACA_site7677]", "gcPBM binding intensity (ln)": "9.38 ± 0.49"},
      {"sequence": "GTACCTATTTCATACACACACACACGCAAACAAACA [CACACA_site6590]", "gcPBM binding intensity (ln)": "9.77 ± 0.25"},
      {"sequence": "TGGTATATTATTTTTTGTACACATAAATGAAACATT [XGTACX_site5345]", "gcPBM binding intensity (ln)": "8.62 ± 0.47"},
      {"sequence": "ATATATATATATATATGTACATATTATTATTTTGAT [XGTACX_site4752]", "gcPBM binding intensity (ln)": "9.575 ± 0.0071"},
      {"sequence": "ATATATATAATAAACACACACATATACATAGATGTA [CACACA_site5841]", "gcPBM binding intensity (ln)": "9.29 ± 0.21"},
      {"sequence": "ATATATATGTATACATGTACATATTTTATTATGTGC [XGTACX_site7207]", "gcPBM binding intensity (ln)": "9.02 ± 0.4"},
      {"sequence": "GTGATTAATATATACACACATACATATATATATATA [CACACA_site2817]", "gcPBM binding intensity (ln)": "9.6 ± 0.028"},
      {"sequence": "TCTTTTAACACATGTGATATTATTTAATAACAATAA [CACACA_negctrl_site339]", "gcPBM binding intensity (ln)": "8.45 ± 0.4"},
      {"sequence": "GGTATACACAAGTATACACACATATAAATATAAATA [CACACA_site7511]", "gcPBM binding intensity (ln)": "9.16 ± 0.49"},
      {"sequence": "CTTTTATAATTCATATGTACTTATTTTTAACATAGG [XGTACX_site7808]", "gcPBM binding intensity (ln)": "8.64 ± 0.49"},
      {"sequence": "AAGAATAACTTTTATACATGCAGCATAATATATTGT [TGCATGCA_site605]", "gcPBM binding intensity (ln)": "8.81 ± 0.38"},
      {"sequence": "TGTACATATATATATATATATGTTACTGAAATAAAA [CACACA_negctrl_site1658]", "gcPBM binding intensity (ln)": "8.8 ± 0.35"},
      {"sequence": "AATAACCACAGACACACACACATATAAATATAAATA [CACACA_site7631]", "gcPBM binding intensity (ln)": "10 ± 0.46"},
      {"sequence": "ACTGTAATATTGAAAGTGCATTAAAGTGTATATTAT [GTGCAC_site9970]", "gcPBM binding intensity (ln)": "8.94 ± 0.45"},
      {"sequence": "TTATTTTATTTAGGGTGTACCCAATTTTTCCATATG [XGTACX_site4957]", "gcPBM binding intensity (ln)": "8.68 ± 0.61"},
      {"sequence": "TCCTATAATTTTTTAATCAAAATATTTTATCCTTTG [CACACA_negctrl_site793]", "gcPBM binding intensity (ln)": "8.43 ± 0.59"},
      {"sequence": "ATTTATATTTATAAATGTACACATATATATTTCATT [XGTACX_site2723]", "gcPBM binding intensity (ln)": "8.84 ± 0.35"},
      {"sequence": "AAAAATTTTTTACATCGTACAGATATATATAATAAA [XGTACX_site3331]", "gcPBM binding intensity (ln)": "8.38 ± 0.45"},
      {"sequence": "TAATTTTTTTAAAAGCGTACATTTAAAAAAAAATAT [XGTACX_site2736]", "gcPBM binding intensity (ln)": "8.21 ± 0.42"}
    ]}
  ]
}
